The list shows a part of the results.
These sequences were tested against T1, OsWOX13 (Oryza sativa, UniProt Q5QMM3 1-267) (assay: protein-binding microarray (RPBM); PBS, 2% BSA, 51.3 ng/ul salmon testes DNA, 50 uM zinc acetate, 200 nM TF, 25 C, 1 h; high values mean tight binding). Settings: protein: recombinant; tags: N-terminal polyhistidine and DsRed monomer fusion (pET32a); label: CyDye5-dUTP incorporated in the synthesized complementary strand; 3' TTTTT single-stranded linker to array surface; dsDNA, one strand shown.
T1 sequence: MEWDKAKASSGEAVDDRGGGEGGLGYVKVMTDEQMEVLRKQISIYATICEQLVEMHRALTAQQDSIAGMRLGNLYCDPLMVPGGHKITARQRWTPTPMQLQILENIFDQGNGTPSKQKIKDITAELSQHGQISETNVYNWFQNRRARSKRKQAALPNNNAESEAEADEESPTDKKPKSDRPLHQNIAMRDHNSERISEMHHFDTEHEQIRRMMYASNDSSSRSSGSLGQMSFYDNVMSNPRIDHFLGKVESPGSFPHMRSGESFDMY
How it was run: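 A custom Agilent array was converted to double-stranded form by primer extension with Cy5-dUTP and blocked with 2% BSA. Protein at 200 nM in PBS with 2% BSA, salmon testes DNA and 50 µM zinc acetate was applied for 1 h at 25 °C, followed by washing. The proteins were polyhistidine–DsRed N-terminal fusions of transcription factors, expressed in E. coli BL21-CodonPlus and Ni–NTA-purified. The binding signal is per-feature fluorescence intensity (arbitrary units) from an Axon 4000B scanner.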

Sequence | binding signal
TTATAATCAGAACCTGTGGCTGATTGAGCAGGATTTGACACGGAGTCACCTAGTGCAG | 7860 fluorescence intensity (a.u.)
CACCTTATTTATAATTTAGTTACTCTCCGGCGGTACCATCCGGAGTCACCTAGTGCAG | 5930 fluorescence intensity (a.u.)
TAATCATGTTAAATTGATGTTATTAGATTTATCATTAAACCGGAGTCACCTAGTGCAG | 14900 fluorescence intensity (a.u.)
TAGTCCATTAGCGCGTGATTAATTAAATATTAGCTAATTTCGGAGTCACCTAGTGCAG | 16900 fluorescence intensity (a.u.)
AGGGTTGTGATTGGTTGGGAAGAGAATGTTGGTAGATAAGCGGAGTCACCTAGTGCAG | 32000 fluorescence intensity (a.u.)
AAACTAATTTATGAATATAACTTTTATATACGTATTGTTACGGAGTCACCTAGTGCAG | 15200 fluorescence intensity (a.u.)
TGCGAAATTTAGCGTGAGAAATTAAGTGATTGATTGAGAGCGGAGTCACCTAGTGCAG | 26900 fluorescence intensity (a.u.)
TGATGATTTGAACCGTACAGCCAAGGGTATGCCAGGTGAACGGAGTCACCTAGTGCAG | 3340 fluorescence intensity (a.u.)
ATAGTCAAATCATCACTATTATAATTCTCATTAATCTTTCCGGAGTCACCTAGTGCAG | 3970 fluorescence intensity (a.u.)
ATCATGGCGTAATTAGGCTTAAAAGATTCGTCTCGCAATTCGGAGTCACCTAGTGCAG | 3990 fluorescence intensity (a.u.)
TAAAGTACTAATTTGTAGTAGTATGTATTTCAAATAGTGCCGGAGTCACCTAGTGCAG | 4040 fluorescence intensity (a.u.)
CTTTTAATTTAATGATGTCCCAGCAGCTTAATTTGAGAGTCGGAGTCACCTAGTGCAG | 28700 fluorescence intensity (a.u.)
AGCGCAATTAGACTTAAAAGATTCGTCTCGCAATTTACATCGGAGTCACCTAGTGCAG | 4020 fluorescence intensity (a.u.)
TAAATAGACAATTTGTGATAGTAATGTGCTCAATAAATCACGGAGTCACCTAGTGCAG | 19600 fluorescence intensity (a.u.)
ATTGATTGGAAGAGAGGTCAAGTACCCCGAAGGATGGTGACGGAGTCACCTAGTGCAG | 18100 fluorescence intensity (a.u.)
AAAATATAATAATTAGTATAGGATGGGACACATTCTGATACGGAGTCACCTAGTGCAG | 8940 fluorescence intensity (a.u.)
TTCTATTAAATTCTTCATGATTAATTACAATATCTAGAATCGGAGTCACCTAGTGCAG | 8070 fluorescence intensity (a.u.)
TCAGTGATGATAGTGTCAATAACAATCTTATCCAGCAGCCCGGAGTCACCTAGTGCAG | 4140 fluorescence intensity (a.u.)
TCCTCTTGATTTAATTGAGACATCACATATCAACATTGATCGGAGTCACCTAGTGCAG | 43000 fluorescence intensity (a.u.)
TTTGATATCATGATTTATCGCATATGTTCGTATGTATACGCGGAGTCACCTAGTGCAG | 19100 fluorescence intensity (a.u.)
ACACAATCATTTATACAAAGCATATAATGGGCCTGTTCGGCGGAGTCACCTAGTGCAG | 6100 fluorescence intensity (a.u.)

Sequence | binding signal
TAAAATTAGGATATGACAGATTCTTAGTTTTAAAATGTATCGGAGTCACCTAGTGCAG | 17800 fluorescence intensity (a.u.)
AGTAATTAGAAAATTGCATTTGATTTCTAGGTTTCCTCCACGGAGTCACCTAGTGCAG | 41900 fluorescence intensity (a.u.)
ATGGATAATTATCCATAACTTATGAGTACCTGGTTTCTTTCGGAGTCACCTAGTGCAG | 34700 fluorescence intensity (a.u.)
TGTAATAATTAGCTGTAGCTCTTTGGCTGTGTTTAGATCACGGAGTCACCTAGTGCAG | 16000 fluorescence intensity (a.u.)
GGAAATTATTTCCCTTAGACATTTTCCAAACACTGCGTGTCGGAGTCACCTAGTGCAG | 6540 fluorescence intensity (a.u.)
TTAATGTTTTGACATGATTTGATCAAGCATTTAAATTTCCCGGAGTCACCTAGTGCAG | 6070 fluorescence intensity (a.u.)
TGAAAACATAATTAGTCGTGCATTGTCTGCCCATACCATACGGAGTCACCTAGTGCAG | 4910 fluorescence intensity (a.u.)
AATGTAATTTCTGGTAAATTTCACTTTTAAGTAAGTTTTACGGAGTCACCTAGTGCAG | 3780 fluorescence intensity (a.u.)
ATGATAATGATATTATATTATACTCCCTCCGTTCTAAAATCGGAGTCACCTAGTGCAG | 3390 fluorescence intensity (a.u.)
ACTTATAATATGTAATTATAATATGAAACGGAGGGAGCATCGGAGTCACCTAGTGCAG | 13400 fluorescence intensity (a.u.)
AAATTAAAAGTTTGATTGAAATTGGAACGATGTGACGGAACGGAGTCACCTAGTGCAG | 33700 fluorescence intensity (a.u.)
ATGAAATTTCACTTTTAATTAGAGGGAGCTCATAGAGAAACGGAGTCACCTAGTGCAG | 3330 fluorescence intensity (a.u.)
GTCCCTGATTAGATCACACAAGATTTGATCGCTATTCGATCGGAGTCACCTAGTGCAG | 42400 fluorescence intensity (a.u.)
GGTGGGGCTGTTAGTTAATTATAATGGCTTAATCCAGAGACGGAGTCACCTAGTGCAG | 10500 fluorescence intensity (a.u.)
CTAATCAATCAAGGCTAATTTAGTGATTAGCATTGAAGTCCGGAGTCACCTAGTGCAG | 34700 fluorescence intensity (a.u.)
CGAATCTTGATGGGAAGTTTAGACGGCTGAGATTTCGCGGCGGAGTCACCTAGTGCAG | 3380 fluorescence intensity (a.u.)
CGGATTAGATCATTACAAGGCGTCCAAATCAAAGTGGCGGCGGAGTCACCTAGTGCAG | 3930 fluorescence intensity (a.u.)
TACACTAGCTAATTGGCTTGATCATTGTTCATCCTAAGAACGGAGTCACCTAGTGCAG | 13500 fluorescence intensity (a.u.)
CTGACGATGACAGATTATTGTCGGGCACAGAGCGTAGTACCGGAGTCACCTAGTGCAG | 10500 fluorescence intensity (a.u.)
GGTTTAAATTTTAAAAGTTTGATCAAATATTATCCTAAACCGGAGTCACCTAGTGCAG | 4900 fluorescence intensity (a.u.)
GGACTTTTAATATAATAGATAGATAATATATACATGGTTACGGAGTCACCTAGTGCAG | 5680 fluorescence intensity (a.u.)

From publication PMC7819943, “Rice protein-binding microarrays: a tool to detect cis-acting elements near promoter regions in rice”
